Test results as given in the supplement of paper PMC9151546.
Most values come without repeats; read them as rough.

Experiments:
CHO-K1 [1] = assay: micronucleus frequency (% of nucleated events); higher = more micronuclei (genotoxic)
CHO-K1 [2] = assay: relative survival (nuclei to bead ratio vs DMSO control) (% of vehicle control); higher = more surviving cells
Experimental: (§1)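 Flow-cytometric in vitro micronucleus assay (Litron MicroFlow) in CHO-K1 cells in 96-well plates, 19 concentrations (4.5-200 µM, n=1 per concentration). Without S9, cells were exposed for 24 h and sampled at 48 h. With Aroclor 1254-induced rat liver S9, cells were exposed for 3-4 h and sampled at 27-28 h. Read-outs are %MN and %hypodiploid nuclei relative to nucleated events, and relative survival as the nuclei-to-bead ratio versus the 1% DMSO vehicle control (x100).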

CHO-K1 [3] = assay: hypodiploid nuclei frequency (% of nucleated events); higher = more hypodiploid events (aneugenic)
Experimental: as §1
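Wherever hypodiploid nuclei frequency (% of nucleated events) is given: hypodiploid nuclei gated on a flow cytometer with 488 nm excitation after SYTOX Green staining, cultures at 37 °C, positive controls vinblastine without S9 and cyclophosphamide with S9.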
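Wherever micronucleus frequency (% of nucleated events) is given: cells lysed with nuclei stained by SYTOX Green, then micronucleus-gated events counted against nucleated events by flow cytometry with 488 nm excitation.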
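Wherever relative survival (nuclei to bead ratio vs DMSO control) is given: Lysed-cell nuclei stained with SYTOX Green and counted against counting beads by flow cytometry at 488 nm excitation, with vinblastine (no S9) and cyclophosphamide (plus S9) as positive controls.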

CCCCC(CC)CO (stereo unspecified) [2-Ethyl-1-hexanol]
Details | hypodiploid nuclei frequency, CHO-K1 [3] [%] | micronucleus frequency, CHO-K1 [1] [%] | relative survival, CHO-K1 [2]
concentration: 4.5 (µM), S9 metabolic activation: with S9, exposure time: 3-4 hours | 0.26 | 0.86 | 117
concentration: 4.5 (µM), S9 metabolic activation: without S9, exposure time: 24 hours | 0.44 | 1.3 | 109
concentration: 5.63 (µM), S9 metabolic activation: with S9, exposure time: 3-4 hours | 0.22 | 1.38 | 99.7
concentration: 5.63 (µM), S9 metabolic activation: without S9, exposure time: 24 hours | 0.52 | 0.96 | 127
concentration: 7.04 (µM), S9 metabolic activation: with S9, exposure time: 3-4 hours | 0.3 | 1.68 | 102
concentration: 7.04 (µM), S9 metabolic activation: without S9, exposure time: 24 hours | 0.58 | 1.1 | 114
concentration: 8.8 (µM), S9 metabolic activation: with S9, exposure time: 3-4 hours | 0.24 | 1.04 | 101
concentration: 8.8 (µM), S9 metabolic activation: without S9, exposure time: 24 hours | 0.46 | 1.48 | 90.1
concentration: 11 (µM), S9 metabolic activation: with S9, exposure time: 3-4 hours | 0.12 | 1.2 | 108
concentration: 11 (µM), S9 metabolic activation: without S9, exposure time: 24 hours | 0.42 | 1.12 | 109
concentration: 13.7 (µM), S9 metabolic activation: with S9, exposure time: 3-4 hours | 0.16 | 0.92 | 99.1
concentration: 13.7 (µM), S9 metabolic activation: without S9, exposure time: 24 hours | 0.54 | 1.02 | 105
concentration: 17.2 (µM), S9 metabolic activation: with S9, exposure time: 3-4 hours | 0.26 | 0.92 | 127
concentration: 17.2 (µM), S9 metabolic activation: without S9, exposure time: 24 hours | 0.34 | 0.94 | 114
concentration: 21.5 (µM), S9 metabolic activation: with S9, exposure time: 3-4 hours | 0.18 | 1.12 | 129
concentration: 21.5 (µM), S9 metabolic activation: without S9, exposure time: 24 hours | 0.38 | 0.94 | 90.1
concentration: 26.8 (µM), S9 metabolic activation: with S9, exposure time: 3-4 hours | 0.1 | 0.96 | 122
concentration: 26.8 (µM), S9 metabolic activation: without S9, exposure time: 24 hours | 0.58 | 1.64 | 91.1
concentration: 33.6 (µM), S9 metabolic activation: with S9, exposure time: 3-4 hours | 0.16 | 1.02 | 125
concentration: 33.6 (µM), S9 metabolic activation: without S9, exposure time: 24 hours | 0.7 | 1.34 | 105
concentration: 41.9 (µM), S9 metabolic activation: with S9, exposure time: 3-4 hours | 0.2 | 1.3 | 105
concentration: 41.9 (µM), S9 metabolic activation: without S9, exposure time: 24 hours | 0.64 | 1.58 | 127
concentration: 52.4 (µM), S9 metabolic activation: with S9, exposure time: 3-4 hours | 0.26 | 0.84 | 100
concentration: 52.4 (µM), S9 metabolic activation: without S9, exposure time: 24 hours | 0.64 | 1.8 | 103
concentration: 65.5 (µM), S9 metabolic activation: with S9, exposure time: 3-4 hours | 0.16 | 0.96 | 99.4
concentration: 65.5 (µM), S9 metabolic activation: without S9, exposure time: 24 hours | 0.84 | 1.34 | 119
concentration: 81.9 (µM), S9 metabolic activation: with S9, exposure time: 3-4 hours | 0.14 | 1.12 | 97.4
concentration: 81.9 (µM), S9 metabolic activation: without S9, exposure time: 24 hours | 0.64 | 1.72 | 95.7
concentration: 102 (µM), S9 metabolic activation: with S9, exposure time: 3-4 hours | 0.2 | 1.66 | 95.2
concentration: 102 (µM), S9 metabolic activation: without S9, exposure time: 24 hours | 1 | 1.62 | 101
concentration: 128 (µM), S9 metabolic activation: with S9, exposure time: 3-4 hours | 0.12 | 1.16 | 93.3
concentration: 128 (µM), S9 metabolic activation: without S9, exposure time: 24 hours | 0.56 | 1.38 | 103
concentration: 160 (µM), S9 metabolic activation: with S9, exposure time: 3-4 hours | 0.16 | 1.02 | 97.4
concentration: 160 (µM), S9 metabolic activation: without S9, exposure time: 24 hours | 0.9 | 1.64 | 96.3
concentration: 200 (µM), S9 metabolic activation: with S9, exposure time: 3-4 hours | 0.14 | 1.3 | 78.1
concentration: 200 (µM), S9 metabolic activation: without S9, exposure time: 24 hours | 1 | 1.98 | 81.1

CCCc1cc(=O)[nH]c(=S)[nH]1 [6-Propyl-2-thiouracil]
Details | hypodiploid nuclei frequency, CHO-K1 [3] [%] | micronucleus frequency, CHO-K1 [1] [%] | relative survival, CHO-K1 [2]
concentration: 4.5 (µM), S9 metabolic activation: with S9, exposure time: 3-4 hours | 0.16 | 1.08 | 75
concentration: 4.5 (µM), S9 metabolic activation: without S9, exposure time: 24 hours | 0.64 | 1.8 | 110
concentration: 5.63 (µM), S9 metabolic activation: with S9, exposure time: 3-4 hours | 0.28 | 1.12 | 80.5
concentration: 5.63 (µM), S9 metabolic activation: without S9, exposure time: 24 hours | 0.56 | 2.26 | 133
concentration: 7.04 (µM), S9 metabolic activation: with S9, exposure time: 3-4 hours | 0.12 | 1.14 | 80.8
concentration: 7.04 (µM), S9 metabolic activation: without S9, exposure time: 24 hours | 0.36 | 1.54 | 132
concentration: 8.8 (µM), S9 metabolic activation: with S9, exposure time: 3-4 hours | 0.28 | 0.92 | 83
concentration: 8.8 (µM), S9 metabolic activation: without S9, exposure time: 24 hours | 0.58 | 2.3 | 131
concentration: 11 (µM), S9 metabolic activation: with S9, exposure time: 3-4 hours | 0.2 | 0.98 | 101
concentration: 11 (µM), S9 metabolic activation: without S9, exposure time: 24 hours | 0.66 | 2.06 | 108
concentration: 13.7 (µM), S9 metabolic activation: with S9, exposure time: 3-4 hours | 0.16 | 0.98 | 89.8
concentration: 13.7 (µM), S9 metabolic activation: without S9, exposure time: 24 hours | 0.54 | 3.66 | 113
concentration: 17.2 (µM), S9 metabolic activation: with S9, exposure time: 3-4 hours | 0.34 | 1.22 | 110
concentration: 17.2 (µM), S9 metabolic activation: without S9, exposure time: 24 hours | 0.52 | 2.78 | 110
concentration: 21.5 (µM), S9 metabolic activation: with S9, exposure time: 3-4 hours | 0.24 | 1.38 | 98.7
concentration: 21.5 (µM), S9 metabolic activation: without S9, exposure time: 24 hours | 0.26 | 1.84 | 96.4
concentration: 26.8 (µM), S9 metabolic activation: with S9, exposure time: 3-4 hours | 0.18 | 1.44 | 87.2
concentration: 26.8 (µM), S9 metabolic activation: without S9, exposure time: 24 hours | 0.46 | 1.36 | 87.8
concentration: 33.6 (µM), S9 metabolic activation: with S9, exposure time: 3-4 hours | 0.26 | 1.2 | 88.7
concentration: 33.6 (µM), S9 metabolic activation: without S9, exposure time: 24 hours | 0.4 | 1.88 | 124
concentration: 41.9 (µM), S9 metabolic activation: with S9, exposure time: 3-4 hours | 0.24 | 1.16 | 80.8
concentration: 41.9 (µM), S9 metabolic activation: without S9, exposure time: 24 hours | 0.44 | 1.46 | 109
concentration: 52.4 (µM), S9 metabolic activation: with S9, exposure time: 3-4 hours | 0.18 | 1.38 | 93.8
concentration: 52.4 (µM), S9 metabolic activation: without S9, exposure time: 24 hours | 0.62 | 2.16 | 118
concentration: 65.5 (µM), S9 metabolic activation: with S9, exposure time: 3-4 hours | 0.64 | 2.64 | 91.8
concentration: 65.5 (µM), S9 metabolic activation: without S9, exposure time: 24 hours | 0.6 | 1.98 | 98.9
concentration: 81.9 (µM), S9 metabolic activation: with S9, exposure time: 3-4 hours | 0.22 | 2 | 88.7
concentration: 81.9 (µM), S9 metabolic activation: without S9, exposure time: 24 hours | 0.44 | 1.5 | 114
concentration: 102 (µM), S9 metabolic activation: with S9, exposure time: 3-4 hours | 0.26 | 1.24 | 72.7
concentration: 102 (µM), S9 metabolic activation: without S9, exposure time: 24 hours | 0.58 | 2.52 | 109
concentration: 128 (µM), S9 metabolic activation: with S9, exposure time: 3-4 hours | 0.28 | 0.78 | 89.1
concentration: 128 (µM), S9 metabolic activation: without S9, exposure time: 24 hours | 1.16 | 2.24 | 88.2
concentration: 160 (µM), S9 metabolic activation: with S9, exposure time: 3-4 hours | 0.3 | 2.38 | 94.7
concentration: 160 (µM), S9 metabolic activation: without S9, exposure time: 24 hours | 0.78 | 2.86 | 104
concentration: 200 (µM), S9 metabolic activation: with S9, exposure time: 3-4 hours | 0.26 | 2.16 | 86.1
concentration: 200 (µM), S9 metabolic activation: without S9, exposure time: 24 hours | 1.08 | 2.54 | 79.3
